From PubChem BioAssay AID686979 (National Center for Advancing Translational Sciences (NCATS), 2013)
The campaign covered roughly 420,000 compounds. About 50,000 (12%) were called active. The shares of active, inactive and inconclusive entries below differ from those in the screen. Calls follow the shape of the dose curve; as a rule, active = well fitted inhibition curve with a large enough effect; inconclusive = small, poorly fitted or top-dose-only effect; inactive = flat fitted curve, though single readings scatter. Potencies of inconclusive entries are left out as doubtful fits.
% is scaled to controls: 0 for no effect and ±100 for the full control effect; potency is read from the fitted curve at half-maximal effect; tags tell the direction and shape of the fitted curve.

Experiment: qHTS for Inhibitors of human tyrosyl-DNA phosphodiesterase 1 (TDP1): qHTS in cells in presence of CPT; also: nearly all actives have a fitted effect of over 55% in size
Details: chicken DT40 Tdp1-/-;hTDP1 cells + 20 nM CPT, ATP luminescence, 48 h; activity change, negative = growth inhibition: at 46.2 µM (top of the series)
How it was run: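 Chicken DT40 Tdp1-/- cells complemented with human TDP1, 400 cells/well, exposed to compounds plus 20 nM camptothecin for at least 48 h at 37 C; viability read as ATP content by CellTiter-Glo luminescence.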
In the case of `COCCNC(=S)N/N=C(\C)c1ccc2cc(OC)ccc2c1`, the Potency is reported as active: 13 µM. With `COc1ccccc1N1CCN(CC(=O)Nc2ccc(C)c(F)c2)CC1` the Potency was inconclusive [inhibitor, single point]. For `COc1ccc2nc(N3CCCCC3)c(C#N)cc2c1`, the activity change, negative = growth inhibition was inconclusive: -36.5% [inhibitor]. In the case of `Nc1nn(-c2ccccc2Cl)cc1-c1nn[nH]n1`, the “activity change, negative = growth inhibition” value is reported as inactive: 16.9%. In the case of `C=CCOC(=O)C1=C(C)NC(C)=C(C(=O)OCC=C)C1c1ccco1`, the Potency is reported as inconclusive [inhibitor, single point]. In the case of `COc1ccc(OC)c(S(=O)(=O)NCCCN2CCCC2=O)c1`, the “activity change, negative = growth inhibition” value is reported as inactive: -3.71%. For `Cc1cc(N/C=C/C(=O)c2cccs2)ccc1F`, the Potency was inconclusive [inhibitor, single point]. For `CCOC(=O)N1CCN(Cc2cn[nH]c2-c2cccc3ccccc23)CC1`, the “activity change, negative = growth inhibition” value was inactive: -27.1%. For `O=C(NN(c1ccccc1)c1ccccc1)c1ccccc1F`, the “activity change, negative = growth inhibition” value was inactive: -2.13%. With `COc1ccccc1-c1cnnc(N/N=C/c2ccc(-c3cccc(Br)c3)o2)n1` the Potency was active: 14.6 µM. With `Cc1ccc(NC(=O)c2c(C)nc3sc(C(=O)Nc4ccc(F)cc4)c(N)c3c2-c2ccc(C)o2)c(C)c1` the Potency was inconclusive [inhibitor, single point]. In the case of `O=c1c2ccccc2nc(SCc2ccc([N+](=O)[O-])cc2)n1-c1ccccc1`, the Potency is reported as inconclusive [inhibitor, partial curve]. In the case of `O=C(N/N=C/c1ccc(-n2ccnc2)cc1)c1cccs1`, the Potency is reported as inconclusive [inhibitor, single point]. For `Nc1cc(=O)[nH]c(N2CCN(c3ccccc3)CC2)n1`, the Potency was inconclusive [inhibitor, single point]. For `CC(C)C[C@@H](CN1CCCC1CN1C(=S)NC[C@@H]1Cc1ccc(O)cc1)N1C[C@H](Cc2ccccc2)N(CCc2ccccc2)C1=S` (stereo partly drawn), the Potency was inconclusive [inhibitor, single point]. In the case of `Cc1ccc(CNc2oc(-c3ccc(COc4ccc(C)cc4)o3)nc2C#N)cc1`, the Potency is reported as inconclusive [inhibitor, single point]. For `CCCOc1ccc(C(=O)NCC2OCCc3ccccc32)cc1` (stereo not drawn), the Potency was inconclusive [inhibitor, single point]. For `CC1(C)CC(=O)C=C(NC2CCCCCCC2)C1`, the “activity change, negative = growth inhibition” value was inactive: 2.32%. In the case of `CC(O)CNCCOc1ccccc1OCc1ccccc1` (stereo not drawn), the Potency is reported as inconclusive [inhibitor, single point]. For `c1ccc(-c2n[nH]c(-c3ccccn3)n2)cc1`, the Potency was inconclusive [inhibitor, single point]. In the case of `CC(C)Cc1nnc(NC(=O)C23CC4CC(CC(C4)C2)C3)s1`, the Potency is reported as inconclusive [inhibitor, single point]. For `CC(C)(C)OC(=O)NCCC(=O)N/N=C/c1ccc2nccnc2c1`, the “activity change, negative = growth inhibition” value was inactive: 0.496%. With `Cc1nc(C(=O)N(C)C)nn1-c1ccc([N+](=O)[O-])cc1` the “activity change, negative = growth inhibition” value was inactive: 9.7%. For `CCN1CCN(S(=O)(=O)c2ccc(C(=O)Nc3sc4c(c3C(N)=O)CCN(CC)C4)cc2)CC1`, the Potency was inconclusive [inhibitor, single point]. In the case of `Cc1ccc(C(=O)C(C)OC(=O)CCS(=O)(=O)c2ccc(C)cc2)cc1` (stereo not drawn), the “activity change, negative = growth inhibition” value is reported as inactive: -5.13%. With `COc1cccc(CNC(=O)c2ccc(N3CCOCC3)c([N+](=O)[O-])c2)c1` the “activity change, negative = growth inhibition” value was inactive: -25.3%. With `CCOC(=O)c1ccc(NC(=O)c2nc[nH]c2C(=O)NCC(=O)OC(C)(C)C)cc1` the Potency was inconclusive [inhibitor, single point]. For `CCOC(=O)c1cc2c(ccn2-c2ccc(F)cc2)n1CC(=O)N(CC)CC`, the Potency was inconclusive [inhibitor, single point]. In the case of `O=C1C2C(c3ccccc3)=NN(c3ccccc3)C2C(=O)N1c1ccccc1` (stereo not drawn), the “activity change, negative = growth inhibition” value is reported as inactive: -7.25%. In the case of `CC(=O)N1CCCc2cc(S(=O)(=O)NC(C(=O)NC3CCCCC3)C(C)C)ccc21` (stereo not drawn), the “activity change, negative = growth inhibition” value is reported as inactive: -8.49%. With `Cc1ccccc1NCC(=O)N/N=C/c1c(C)c(C(=O)c2ccc(Cl)cc2)n2ccccc12` the Potency was active: 16.4 µM. For `CN(Cc1ccccc1)C(=O)c1ccc(NC(=O)Cc2ccc(NC(=O)C3CCCN(C(=O)C4CCCC4)C3)cc2)cc1` (stereo not drawn), the Potency was inconclusive [inhibitor, single point]. In the case of `COc1ccc(-n2c(SCC(=O)N3CCc4ccccc43)nc3c([nH]c4ccccc43)c2=O)cc1`, the Potency is reported as inconclusive [inhibitor, partial curve]. In the case of `CCOC(=O)C(=CNc1cc(OC)ccc1-n1cccc1)C(=O)OCC`, the Potency is reported as inconclusive [inhibitor, partial curve]. In the case of `Cc1nc2nc(-c3ccco3)[nH]n2c(=O)c1Cc1ccccc1`, the “activity change, negative = growth inhibition” value is reported as inactive: -6.71%. In the case of `COc1ccc(S(=O)Cc2ccc(C(=O)N3CCN(C(=O)c4ccco4)CC3)o2)cc1` (stereo not drawn), the “activity change, negative = growth inhibition” value is reported as inactive: -7.32%. With `Cc1ccc(-c2nnn(CC(=O)N(Cc3cccs3)C(C(=O)NC(C)(C)C)c3ccco3)n2)o1` (stereo not drawn) the Potency was inconclusive [inhibitor, single point]. For `COC(=O)c1c(NC(=O)c2nc3ccccc3s2)sc2c1CCN(C(C)=O)C2`, the Potency was active: 7.31 µM. With `CCc1ccc(CNC(=O)c2cc3ccccn3n2)cc1` the Potency was inconclusive [inhibitor, single point]. With `CSc1ccc(/C=N/NC(=O)c2ccccc2Cl)cc1` the Potency was active: 16.4 µM. In the case of `CCOC(=O)c1ccc(NC(=O)Cn2nnc(-c3ccccc3F)n2)cc1`, the Potency is reported as inconclusive [inhibitor, single point]. In the case of `COc1ccc(C2C(C(=O)Nc3ccc(Cl)cc3)=C(C)Nc3nc(SCc4cccc(C)c4)nn32)cc1OC` (stereo not drawn), the Potency is reported as inconclusive [inhibitor, single point]. In the case of `Cc1nn(Cc2ccccc2)c(C)c1NC(=O)c1noc2c1CCc1ccccc1-2`, the Potency is reported as inconclusive [inhibitor, partial curve, poor fit]. In the case of `COCCCN1C(=O)c2ccccc2CC1(C)C(=O)NC1CCCCC1` (stereo not drawn), the “activity change, negative = growth inhibition” value is reported as inactive: 2.23%. In the case of `CCOC(=O)c1c(C)[n+](-c2ccc(C)cc2)c(CC)c2cc(OC)c(OC)cc12`, the Potency is reported as active: 2.06 µM. With `Cc1ccccc1-c1cc(C(=O)NCC2CC2)n(CC2CC(c3cccnc3)=NO2)n1` (stereo not drawn) the “activity change, negative = growth inhibition” value was inactive: 0.873%. In the case of `O=C(Nc1ccc(Cl)cc1F)c1cnc2sc(N3CCOCC3)nn2c1=O`, the “activity change, negative = growth inhibition” value is reported as inactive: -1.89%. In the case of `Cc1cnc2nc(-c3ccccc3)ccc2c1`, the Potency is reported as inconclusive [inhibitor, single point]. With `O=C(CSc1nnc(-c2ccccc2F)o1)Nc1cccc(C(F)(F)F)c1` the Potency was inconclusive [inhibitor, single point]. For `COc1ccc(Nc2nc(-c3cccs3)nc3ccccc23)c(OC)c1`, the Potency was active: 16.4 µM. For `CCC1CCCCN1S(=O)(=O)c1ccc(C(=O)Nc2sc3c(c2C(N)=O)CCC3)cc1` (stereo not drawn), the Potency was inconclusive [inhibitor, single point]. With `COCCNC(=O)C1(C)Cc2c(-c3ccc4c(c3)OCO4)ccnc2O1` (stereo not drawn) the Potency was active: 11.6 µM. For `COc1cc(OC)c(-c2nn3c(-c4ccco4)nnc3s2)cc1OC`, the Potency was inconclusive [inhibitor, single point]. For `Cc1c(C(=O)NC2CCCCC2)oc2ccc(F)cc12`, the activity change, negative = growth inhibition was inconclusive: -31% [inhibitor]. In the case of `COc1ccccc1NC(=O)C[n+]1ccccc1`, the “activity change, negative = growth inhibition” value is reported as inactive: 18.6%. For `COc1ccccc1/C=C1\C(=O)Nc2ccccc21`, the Potency was inconclusive [inhibitor, single point]. In the case of `Cc1nn(C)c(C)c1CCC(=O)N1CCCC(C(=O)c2cccc(OC(C)C)c2)C1` (stereo not drawn), the Potency is reported as active: 18.4 µM. In the case of `COc1ccc(S(=O)(=O)N2CCC(C(=O)NCCC(=O)NCCc3cccc(F)c3)CC2)cc1`, the “activity change, negative = growth inhibition” value is reported as inactive: -23.3%. In the case of `O=C(c1ccccc1)N1CCN(C2CCCCC2)CC1`, the “activity change, negative = growth inhibition” value is reported as inactive: -7.81%. In the case of `COC(=O)/C(C#N)=C/c1c(Oc2cc(C)cc(C)c2)nc2ccccn2c1=O`, the Potency is reported as inconclusive [inhibitor, single point]. In the case of `O=C(CCC(=O)N1CCN(c2ccc(Cl)c(Cl)c2)CC1)c1ccccc1`, the Potency is reported as active: 20.6 µM. For `COCCN(Cc1ccccc1)C(=O)c1cc(-c2ccc(OC)c(OC)c2)nc2ccccc12`, the Potency was inconclusive [inhibitor, single point]. With `Cc1cccc(C(=O)NCC(c2cccs2)N2CCOCC2)c1` (stereo not drawn) the “activity change, negative = growth inhibition” value was inactive: -8.34%. In the case of `COc1ccccc1NC(=O)CCc1nc(-c2cccs2)no1`, the “activity change, negative = growth inhibition” value is reported as inactive: -2.35%. With `COc1ccccc1CNc1nc(NCCN2CCNC2=O)c2sccc2n1` the Potency was active: 18.4 µM. For `C(#CCN1CCOCC1)COC(c1ccccc1)c1ccccc1`, the Potency was inconclusive [inhibitor, partial curve, poor fit]. For `CCCCCCCc1c(O)nc(SCCN(C)C)[nH]c1=O`, the “activity change, negative = growth inhibition” value was inactive: 6.69%. In the case of `Cc1ccc(C2=NN(CC(=O)NCc3ccccn3)C(=O)CC2)cc1`, the “activity change, negative = growth inhibition” value is reported as inactive: 0.172%. In the case of `Cc1ccc(S(=O)(=O)N2C[C@H]3[C@H]4C(=O)N(c5ccccc5)C(=O)[C@H]4CC(=O)[C@H]3[C@@H]2c2ccccc2)cc1`, the “activity change, negative = growth inhibition” value is reported as inactive: 25.1%. For `Cc1cc(=O)oc2cc(OC(=O)CCN3C(=O)c4ccccc4C3=O)ccc12`, the activity change, negative = growth inhibition was inconclusive: -31.5% [inhibitor]. With `COc1ccc(CNC(=O)C[C@H]2C[C@H](C(=O)N3CCOCC3)[C@@]3(C)c4[nH]c5cc(-c6ccco6)ccc5c4CCN3C2=O)cc1OC` the Potency was inconclusive [inhibitor, single point]. With `COCCNC(=O)Cn1c(=O)n(CCCCCC(=O)NCc2ccccc2Cl)c(=O)c2sccc21` the Potency was inconclusive [inhibitor, single point]. For `CC(C)c1nc(SCC(=O)N2CCCC2)c2c(=O)n(C)c(=O)n(C)c2n1`, the Potency was inconclusive [inhibitor, partial curve].
